About 240 (0.17%) of roughly 140,000 compounds were called active. The shares of active, inactive and inconclusive entries below differ from those in the screen. The call rests on the fitted dose curve; in most records, active means well fitted inhibition curve with a large enough effect; inconclusive means small, poorly fitted or top-dose-only effect; inactive means no such curve, though single readings can be large or run the other way. A potency beside an inconclusive call is a rough fit, not a confirmed value.
Assay: Primary qHTS assay for inhibitors of alpha-synuclein gene (SNCA) expression; further: nearly all actives have a fitted effect of over 45% in size;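 on activity change, negative = inhibition: plate controls were DMSO cells for no effect and cell-free wells for full effect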
Settings: HEK-293 SNCA-luciferase knock-in, luminescence, 24 h; activity change, negative = inhibition: at 57.2 µM (top of the series) unless noted
Potency means the concentration at half of the fitted maximal effect; tags describe the fitted curve by direction and shape.

Compound	Potency	activity change, negative = inhibition
CCOc1ccc(CNC(=O)c2oc3c(c2C)-c2nn(Cc4cccc(Cl)c4)cc2CC3)cc1	inconclusive: 44.7 µM [inhibitor, partial curve, poor fit]	–
CCOC(=O)c1ccc(N2C(=O)c3n[nH]c(-c4ccco4)c3C2c2ccc(C(=O)OC)cc2)cc1 (centres undefined)	inconclusive: 3.55 µM [inhibitor, partial curve, poor fit]	–
COc1ccc(CN2C=C(C(=O)OCc3nc(-c4ccc(F)cc4)no3)C(C)=NS2(=O)=O)cc1	inconclusive: 39.8 µM [inhibitor, partial curve, poor fit]	–
CC(C)(C)CC(=O)Nc1nc2c(s1)C[C@@H]1[C@](C)(CO)[C@H](O)CC[C@@]1(C)[C@@H]2CC(=O)N1CCC(C(N)=O)CC1	–	inactive: -15.2%
CCCCN(CC)C(=O)CSc1nc2n[nH]c(C)c2c(=N)n1-c1ccc(CC)cc1	inconclusive: 31.6 µM [inhibitor, single point]	–
Cn1cc([C@@H](NC(=O)CN2CCOc3ccccc3C2)C2CC(O)C2)cn1 (some centres undefined)	inconclusive: 14.1 µM [inhibitor, single point]	–
Cc1cc(C)c(CNC(=O)c2cc(-c3ccccc3F)cc3c2OCCN3C)c(=O)[nH]1	inconclusive: 22.4 µM [inhibitor, partial curve, poor fit]	–
Cc1ncc2n1C(=O)N(C1CCN(Cc3ccccc3F)CC1)C2	inconclusive: 5.62 µM [inhibitor, full curve]	–
O=C(Cc1cccc(Cl)c1)NCc1c[nH]c2ncccc12	inconclusive: 3.16 µM [inhibitor, full curve, poor fit]	–
COc1ccccc1OCC(=O)NCC1CCCN(Cc2ccc(C)c(C)c2)C1 (centres undefined)	inconclusive: 0.631 µM [inhibitor, full curve, poor fit]	–
CCNC(=O)c1cccnc1OC1CCN(Cc2ccccn2)C1 (centres undefined)	–	inactive: 9.84%
CCC1Sc2ccccc2N(CC(=O)NCc2ccc(C)cc2)C1=O (centres undefined)	inconclusive: 39.8 µM [inhibitor, single point]	–
Cc1nn(C)c(C)c1S(=O)(=O)N1CCCC(CO)(Cc2ccccc2)C1 (centres undefined)	–	inactive: 8.39%
O=C(NCC(F)(F)F)c1ccc2nc(-c3ccncc3)oc2c1	–	inactive: 60.5%
Cc1cc(C)c(NC(=O)Cn2c(=O)oc3cc(S(=O)(=O)N4CCCCCC4)ccc32)c(C)c1	inconclusive: 39.8 µM [inhibitor, single point]	–
COC(=O)[C@@H]1Cc2c([nH]c3ccccc23)[C@H]2C[C@H](NCc3cccs3)C[C@@H](c3ccccc3)N21	inconclusive: 39.8 µM [inhibitor, single point]	–
CN(C)C(=O)CN1CCCC(CO)(CC2CC2)C1 (centres undefined)	inconclusive: 7.08 µM [inhibitor, full curve, poor fit]	–
O=C(c1cccnc1)N1CCC(c2nnc3n2C(C(=O)N2CCCC2)CC3)CC1 (centres undefined)	inconclusive: 3.98 µM [inhibitor, single point]	–
O=C(NCc1ccc(Cl)cc1)c1ccc2nnc(CC3CC3)n2c1	–	inactive: -12% [at 87.6 µM]
Cc1cc(F)ccc1Nc1ncncc1-c1nc(-c2ccccc2)no1	inconclusive: 28.2 µM [inhibitor, single point]	–

Compound	Potency	activity change, negative = inhibition
O=C(N[C@H]1CCN2C(=O)N(c3cccc4nsnc34)C(=O)[C@@H]2C1)c1ccnc(Cl)c1	–	inactive: 16.2%
O=C(NCCc1ccc(Cl)cc1)C1CCN(Cc2cc3ccccc3n2Cc2ccccc2)CC1	inconclusive: 39.8 µM [inhibitor, single point]	–
Cc1ccc(CNC(=O)c2ccc(CSc3nc4ccncc4n3Cc3ccc(C)cc3)cc2)cc1	inconclusive: 39.8 µM [inhibitor, single point]	–
CC(=O)N1CCCC(c2nn(-c3ccc(F)cc3)c(=O)[nH]2)C1 (centres undefined)	–	inactive: 15.4% [at 87.6 µM]
O=C(Cn1nc(C(F)(F)F)c2c1CCCC2)Nc1cccc(Cl)c1	inconclusive: 35.5 µM [inhibitor, single point]	–
CC(=O)c1cccc(NC(=O)CN2C(=O)NC3(CCC(C(C)(C)C)CC3)C2=O)c1 (centres undefined)	inconclusive: 11.2 µM [inhibitor, partial curve, poor fit]	–
CCCN(C(=O)c1cc(S(=O)(=O)N2CCc3ccccc32)cn1C)c1ccc(OCC)cc1	inconclusive: 39.8 µM [inhibitor, single point]	–
COc1cc(F)ccc1-c1cn(C)c(=O)n2cc(CN3CCNC(=O)C3)nc12	–	inactive: 15.4% [at 87.6 µM]
O=C(Nc1ccc2n(c1=O)C[C@H]1C[C@@H]2CN(C(=O)Nc2ccc(F)cc2)C1)c1ccccc1	–	inactive: -2.21%
C#CCNC(=O)C1CCc2nnc(-c3ccccc3OC)n21 (centres undefined)	inconclusive: 2 µM [inhibitor, partial curve, poor fit]	–
Cc1cccc(Nc2nnc(-c3ccc(C)c(S(=O)(=O)N4CCN(C)CC4)c3)c3ccccc23)c1	inconclusive: 10 µM [inhibitor, partial curve]	–
COc1cc(OC)cc(C(=O)N2CCC(Cc3nc(C(C)C)no3)CC2)c1	inconclusive: 35.5 µM [inhibitor, single point]	–
CCOC(=O)c1ccccc1NC(=O)COC(=O)CC(C)(C)CC1=NS(=O)(=O)c2ccccc2N1	inconclusive: 31.6 µM [inhibitor, single point]	–
O=C(O)c1c(Cl)c(Cl)c(Cl)c(Cl)c1-c1c2cc(I)c(=O)c(I)c-2oc2c(I)c(O)c(I)cc12	inconclusive: 24.1 µM [inhibitor, single point]	–
COc1cccc(NC(=O)c2oc3ccc(S(=O)(=O)N4CCCCCC4)cc3c2C)c1	inconclusive: 17.8 µM [inhibitor, partial curve]	–
CC(C)CCNC(=O)Cn1ccn2nc3c(c2c1=O)CCCC3	inconclusive: 14.1 µM [inhibitor, single point]	–
COc1cccc(NC(=O)C2CCN(S(=O)(=O)c3ccc4[nH]c5c(c4c3)CCCCC5)CC2)c1	inconclusive: 0.501 µM [inhibitor, single point]	–
Cc1ccc(NC(=O)c2ccc3snnc3c2)cc1C	–	inactive: 114%
Cc1nn(C)c(C)c1CCC(=O)NCCc1ncc(C)n1Cc1ccc(F)cc1	inconclusive: 3.16 µM [inhibitor, partial curve, poor fit]	–

Source: PubChem BioAssay AID1671194 (National Center for Advancing Translational Sciences (NCATS), 2021)
